Laboratory results as given in patent US9980965B2, “Treatment of autoimmune disease” (MingSight Pharmaceuticals, Inc., priority 2014, dated 2018).

Legend:
[1] = test system: MRL/lpr mouse model of lupus; test: MRL/lpr mouse model of lupus; type: in vivo, mice
[2] = test system: experimental autoimmune uveitis; test: Lewis rat model of experimental autoimmune uveitis; type: in vivo
Description: The animal model used in this testing was the Lewis rat model of experimental autoimmune uveitis, a well-known model of uveitis (Nussenblatt R B, et al, 1981, J Clin Invest. 67(4): 1228-1231; Mochizuki M, et al, 1985, Invest Ophthalmol Vis Sci. 26(2): 226-232). Compound A was prepared as an oral suspension and dosed orally, once per day at two doses, 10 and 20 mg/kg. The efficacy was compared to animals that received the positive control cyclosporine dosed at 25 mg/kg. […] Efficacy in the model was assessed by clinical grading and by assessment of the sections of the eyes prepared for histology at the completion of the experiment.

Human PKC epsilon = biological target: T1, Human PKC epsilon (Homo sapiens, UniProt Q02156); test: In vitro PKC inhibition, PKC epsilon; type: biochemical
T1 sequence (Q02156 1-737): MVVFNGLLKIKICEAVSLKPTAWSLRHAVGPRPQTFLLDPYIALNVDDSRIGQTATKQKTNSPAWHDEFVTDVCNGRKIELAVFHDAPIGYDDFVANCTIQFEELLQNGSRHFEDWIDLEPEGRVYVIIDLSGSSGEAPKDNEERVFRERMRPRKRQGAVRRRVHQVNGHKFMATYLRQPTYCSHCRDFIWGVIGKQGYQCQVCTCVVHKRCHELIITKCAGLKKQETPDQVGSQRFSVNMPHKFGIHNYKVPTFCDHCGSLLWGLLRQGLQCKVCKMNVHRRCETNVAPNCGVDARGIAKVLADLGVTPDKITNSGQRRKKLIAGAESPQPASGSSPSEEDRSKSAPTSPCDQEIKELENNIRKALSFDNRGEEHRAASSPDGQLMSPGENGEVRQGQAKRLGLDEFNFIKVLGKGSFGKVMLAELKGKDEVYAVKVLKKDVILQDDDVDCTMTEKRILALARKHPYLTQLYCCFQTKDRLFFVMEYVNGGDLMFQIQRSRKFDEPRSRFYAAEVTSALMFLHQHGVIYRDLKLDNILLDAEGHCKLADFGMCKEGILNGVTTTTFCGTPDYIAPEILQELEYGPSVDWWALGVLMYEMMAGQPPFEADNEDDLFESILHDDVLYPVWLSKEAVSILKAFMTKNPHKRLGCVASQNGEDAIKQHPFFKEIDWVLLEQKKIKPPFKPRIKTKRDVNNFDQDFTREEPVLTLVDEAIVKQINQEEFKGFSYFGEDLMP
Source text: (§1) The methods for these determinations have been described (Grant, et al. 2010, Eur J Pharmacol. 627:16-25).

Human PKC alpha = Human PKC alpha (Homo sapiens, UniProt P17252); test: In vitro PKC inhibition, PKC alpha; type: biochemical
Human PKC theta = Human PKC theta (Homo sapiens, UniProt Q04759); test: In vitro PKC inhibition, PKC theta; type: biochemical
Source text: as §1

Human PRKCN (PKD3) = biological target: T2, Human PRKCN (PKD3) (Homo sapiens, UniProt O94806); test: In vitro inhibition, PRKCN (PKD3); type: biochemical
T2 sequence (O94806 1-890): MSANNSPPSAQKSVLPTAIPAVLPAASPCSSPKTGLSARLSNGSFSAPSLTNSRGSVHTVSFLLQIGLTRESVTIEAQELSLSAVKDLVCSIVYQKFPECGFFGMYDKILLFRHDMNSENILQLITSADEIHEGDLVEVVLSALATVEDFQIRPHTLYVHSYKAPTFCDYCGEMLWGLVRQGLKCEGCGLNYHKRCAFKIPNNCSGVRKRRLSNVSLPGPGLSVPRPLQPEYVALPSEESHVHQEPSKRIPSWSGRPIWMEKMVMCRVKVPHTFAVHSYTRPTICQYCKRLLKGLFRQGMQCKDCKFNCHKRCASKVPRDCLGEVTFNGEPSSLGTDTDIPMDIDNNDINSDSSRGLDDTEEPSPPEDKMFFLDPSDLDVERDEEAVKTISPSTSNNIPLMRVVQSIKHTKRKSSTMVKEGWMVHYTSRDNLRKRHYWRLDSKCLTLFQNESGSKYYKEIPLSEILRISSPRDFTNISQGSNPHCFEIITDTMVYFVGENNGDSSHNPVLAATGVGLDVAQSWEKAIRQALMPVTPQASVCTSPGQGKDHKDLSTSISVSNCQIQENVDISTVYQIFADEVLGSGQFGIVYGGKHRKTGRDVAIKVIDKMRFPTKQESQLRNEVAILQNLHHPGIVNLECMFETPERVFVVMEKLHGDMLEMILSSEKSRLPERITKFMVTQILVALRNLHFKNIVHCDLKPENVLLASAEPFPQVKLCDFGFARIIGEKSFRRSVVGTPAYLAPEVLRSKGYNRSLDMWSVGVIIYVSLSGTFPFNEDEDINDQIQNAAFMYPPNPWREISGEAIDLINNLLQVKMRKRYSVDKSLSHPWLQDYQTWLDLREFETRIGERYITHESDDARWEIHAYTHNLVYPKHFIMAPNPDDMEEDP
Source text: as §1

Human PKC zeta = biological target: T3, Human PKC zeta (Homo sapiens, UniProt Q05513); test: In vitro PKC inhibition, PKC zeta; type: biochemical
T3 sequence (Q05513 1-592): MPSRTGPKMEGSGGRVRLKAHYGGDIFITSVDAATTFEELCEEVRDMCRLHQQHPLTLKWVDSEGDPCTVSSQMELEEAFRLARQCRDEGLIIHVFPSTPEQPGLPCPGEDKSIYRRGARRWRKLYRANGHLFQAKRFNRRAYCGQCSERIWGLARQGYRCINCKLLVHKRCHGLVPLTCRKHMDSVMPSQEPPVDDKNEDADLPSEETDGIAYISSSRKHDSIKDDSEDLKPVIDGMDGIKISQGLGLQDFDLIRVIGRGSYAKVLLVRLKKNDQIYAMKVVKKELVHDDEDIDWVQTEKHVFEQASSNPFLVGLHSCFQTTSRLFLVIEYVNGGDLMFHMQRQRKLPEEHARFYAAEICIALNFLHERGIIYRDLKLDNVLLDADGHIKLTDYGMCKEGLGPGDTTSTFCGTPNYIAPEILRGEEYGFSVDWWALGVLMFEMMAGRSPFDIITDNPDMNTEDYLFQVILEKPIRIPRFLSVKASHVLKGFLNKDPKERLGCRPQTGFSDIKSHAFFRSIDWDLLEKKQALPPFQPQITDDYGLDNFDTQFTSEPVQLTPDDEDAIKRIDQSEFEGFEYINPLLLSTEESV
Source text: as §1

Human PKC eta = Human PKC eta (Homo sapiens, UniProt P24723); test: In vitro PKC inhibition, PKC eta; type: biochemical
Source text: as §1

[3] = both doses, oral suspension BID, 12 weeks (final 180 and 240 mg/kg/day)
[4] = 10 and 20 mg/kg orally, once per day
[5] = very modest doses (10 and 20 mg/kg orally, once per day)

Cc1ncc(F)c(Nc2n[nH]c3c2CN(C(=O)N2C[C@@H](C)N(CC4CCOCC4)C[C@@H]2C)C3(C)C)n1 [Compound A, 5-{[(2S,5R)-2,5-Dimethyl-4-(tetrahydro-2H-pyran-4-ylmethyl)piperazin-1-yl]carbonyl}-N-(5-fluoro-2-methylpyrimidin-4-yl)-6,6-dimethyl-1,4,5,6-tetrahydropyrrolo[3,4-c]pyrazol-3-amine]
blood urea nitrogen (BUN) values (in words) ([1]; across the two doses, statistically significant at the higher dose): dose-dependent reduction | lymphadenopathy score (FIG. 2) [1, 3]: reduction | mean absolute spleen weight (FIG. 3) [1, 3]: reduction | mean lymph node weight (FIG. 4) [1, 3]: reduction | protein in the urine (FIG. 1) [1, 3]: significant reduction | animals found to have a BUN≤33 mg/dL (normal range for the mouse) ([1]; two treatment groups together, 21/23 animals, control 2/11 (18%)): 91% | disease severity by clinical score (FIG. 6) [2, 4]: dose dependent decrease | disease severity by histopathological score (FIG. 7) [2, 4]: dose dependent decrease | reduction in clinical scores [2, 5]: greater than 50% | reduction in histopathological scores [2, 5]: greater than 75% | IC50 (Human PKC epsilon): 808 nM | IC50 (Human PKC alpha): 2.3 nM | Ki (Human PKC alpha; recombinant PKC alpha): 10.4 nM | IC50 (Human PKC theta): 25.6 nM | IC50 (Human PRKCN (PKD3)): 131 nM | IC50 (Human PKC zeta): > 1000 nM | IC50 (Human PKC eta): > 1000 nM
